Measurements: PubChem BioAssay AID588342 (National Center for Advancing Translational Sciences (NCATS), 2011)
Out of some 360,000 compounds screened, about 25,000 (6.9%) were called active. Inconclusive results, whose numbers are uncertain, are shown with a selection of clear calls. Calls follow the shape of the dose curve; as a rule, active = well fitted inhibition curve with a large enough effect; inconclusive = small, poorly fitted or top-dose-only effect; inactive = flat fitted curve, though single readings scatter. Where the call is inconclusive, the potency comes from a doubtful curve fit.

target: Luciferin 4-monooxygenase (Photinus pyralis) (UniProt P08659); experiment: qHTS profiling assay for firefly luciferase inhibitor/activator using purifed enzyme and Km concentrations of substrates (counterscreen for miR-21 project); settings: purified FLuc, luminescence inhibition; series mostly up to 57.5 µM; activity change, negative = inhibition: at the top concentration; also: nearly all actives have a fitted effect of over 55% in size;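 as to activity change, negative = inhibition: plate controls were vehicle for no effect and reference inhibitor for full effect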
UniProt P08659, sequence (P08659 whole entry, looked up): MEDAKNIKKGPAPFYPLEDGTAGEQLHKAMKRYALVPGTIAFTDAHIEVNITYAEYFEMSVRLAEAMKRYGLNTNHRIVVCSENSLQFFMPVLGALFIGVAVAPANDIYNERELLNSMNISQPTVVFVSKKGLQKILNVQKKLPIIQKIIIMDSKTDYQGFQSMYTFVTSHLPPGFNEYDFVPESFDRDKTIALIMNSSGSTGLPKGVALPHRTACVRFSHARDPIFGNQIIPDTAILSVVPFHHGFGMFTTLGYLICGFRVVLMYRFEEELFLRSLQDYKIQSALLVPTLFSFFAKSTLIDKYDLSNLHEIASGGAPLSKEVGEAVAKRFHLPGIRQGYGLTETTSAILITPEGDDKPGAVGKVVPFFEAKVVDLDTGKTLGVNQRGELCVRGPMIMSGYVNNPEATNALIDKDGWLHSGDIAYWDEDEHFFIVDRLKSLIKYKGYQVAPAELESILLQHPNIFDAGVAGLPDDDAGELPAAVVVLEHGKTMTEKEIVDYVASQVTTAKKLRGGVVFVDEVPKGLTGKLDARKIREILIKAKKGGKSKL
In short: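 Purified P. pyralis luciferase (10nM final) with 10uM D-luciferin and 10uM ATP (Km levels) in 50mM Tris acetate pH 7.5, 10mM Mg acetate, 0.01% Tween-20, 0.05% BSA; qHTS 6-point titration, ~60 µM downward; luminescence read.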
Potency is read from the fitted curve at half-maximal effect; tags tell the direction and shape of the fitted curve.

Compound	Potency	activity change, negative = inhibition
O=c1oc2ccccc2n1CCCOc1ccccc1Cl	active: 12 µM	
O=C(CN1C(=O)CCC1=O)Nc1nc(-c2nc3ccccc3s2)cs1	active: 10.7 µM	
Cc1cc(C)c(NC(=O)C(C)OC(=O)c2cc(Br)c(Br)s2)c(C)c1 (configuration not stated)		inactive: 0.75%
O=C(CN1CCOCC1)Nc1ccc2c(c1)CCC2	inconclusive: 37.9 µM [inhibitor, partial curve, poor fit]	
Cc1cc(C(=O)CSc2nc(N)cc(=O)[nH]2)c(C)n1-c1cccc(F)c1	inconclusive: 15.1 µM [inhibitor, partial curve]	
COC(=O)C(=Cc1ccc(OCc2ccc([N+](=O)[O-])cc2)c(OC)c1)C(=O)OC	active: 9.53 µM	
CC(=O)Cc1nsc(NC(=O)c2cc(-c3ccc(Cl)c(Cl)c3)oc2C)n1		inactive: -2.26%
CCOC(=O)C1(C(F)(F)F)N=C(c2cccnc2)OC(N2CCCCC2)=N1 (configuration not stated)		inactive: 4.76%
CCOC(=O)c1sc(NC(=O)c2cncc(Br)c2)nc1C	active: 2.13 µM	
O=C(NCCc1csc(-c2cccnc2)n1)c1ccccc1Br	active: 16.9 µM	
COc1ccc(CCNC(=O)c2ccc3c(c2)N=C(C)c2cc(C)ccc2S3)cc1OC		inactive: -10.4%
COc1cc(NC(=O)c2cnc(N)o2)cc(C(=O)Nc2cccc(C(F)(F)F)c2)c1	active: 21.3 µM	
Oc1c(Br)cc(Br)cc1C=Nc1ccc2c(c1)OCCO2	active: 23.9 µM	
CC1CCCCN1C(=O)COC(=O)/C=C/c1ccc2ccccc2n1 (configuration not stated)	inconclusive: 30.1 µM [inhibitor, single point]	
Cc1c(O)c2c3c(cccc3c1O)C(=O)N(c1ccccc1)C2=O	inconclusive: 37.9 µM [inhibitor, partial curve, poor fit]	
CN(C)CCCNC(=O)C1(O)c2cc(Br)ccc2NC(=O)N1c1ccc(Cl)cc1 (configuration not stated)		inactive: -0.542%
COCc1nc(-c2ccc(-c3ccc(C)cc3)nc2OC)no1	active: 16.9 µM	
Cc1ccc(N2C(=O)C(Cl)=C(N3CCCCCC3)C2=O)cc1	inconclusive: 19 µM [inhibitor, single point]	
Cc1nc(C)c(C(=O)Nc2ccc(C)c(F)c2)o1	inconclusive: 26.9 µM [inhibitor, partial curve, poor fit]	
COC(=O)[C@H](C)NC(=O)Nc1ccc(OC(F)(F)F)cc1		inactive: 0.295%
Cc1ccc(NC(=O)Nc2ccc(Cl)c(Cl)c2)nc1	inconclusive: 4.26 µM [inhibitor, full curve]	
Cc1cc(C)n(CC(O)COc2ccc3ccccc3c2)n1 (configuration not stated)	inconclusive: 26.9 µM [inhibitor, single point]	
